# Reference: PubChem BioAssay (NCATS)
# Inconclusive results, whose numbers are uncertain, are shown with a selection of clear calls. For part of these data: Potencies of inconclusive entries are doubtful fits and often do not repeat. Activity calls are given as the source filed them. Unless noted, calls come from the whole dose curve; as a rule, active = well fitted curve in the direction sought with a large enough effect; inconclusive = small, poorly fitted or top-dose-only effect, or another doubt; inactive = no such curve, though single readings can be large; an effect the other way counts as inactive or inconclusive.
# How the values were obtained:
# [1] = P-glycoprotein substrates identified in KB-8-5-11 adenocarcinoma cell line, qHTS therapeutic library screen (AID 1346987); note: nearly all actives have a fitted effect of over 65% in size; note: potency is the fitted concentration of half-maximal effect
# Outline: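 KB-8-5-11: colchicine-selected sub-line of KB-3-1 over-expressing P-gp; assay medium lacked colchicine. 72 h drug exposure at 37 degree C, CellTiter-Glo.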
# [2] = system: Zika virus NS2B-NS3 protease (unlinked complex); assay: Primary screen GU Rhodamine qHTS for Zika virus inhibitors: Unlinked NS2B-NS3 protease assay (AID 1347159); note: potency is the fitted concentration of half-maximal effect; nearly all actives have a fitted effect of over 60% in size
# Outline: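 Noncovalent NS2B hydrophilic domain/NS3 protease complex (25 nM final) in 10 mM Tris-HCl pH 8.0, 0.01% Tween 20, preincubated 15 min with compounds (up to 114 microM), then 1.5 microM Rhodamine110 substrate. Fluorescence change over 15 min fitted to 4-parameter Hill.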
# [3] = system: Zika virus NS2B-NS3 protease (linked construct); assay: Primary screen NINDS Rhodamine qHTS for Zika virus inhibitors (AID 1347160); conditions: activity change, negative = inhibition: at 57.1 µM (top of the series) unless noted; note: potency is the fitted concentration of half-maximal effect; nearly all actives have a fitted effect of over 55% in size
# Outline: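 Purified NS2B-NS3 protease with the NS2B hydrophilic domain joined by a flexible linker (25 nM) in 10 mM Tris-HCl pH 8.0, 0.01% Tween 20, preincubated 15 min at RT with compound; Rhodamine110 peptide substrate 1.5 µM; fluorescence change over 15 min; 4-parameter Hill fit.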
# [4] = Primary qHTS for inhibitors of nuclear receptor binding SET domain protein 2 (NSD2) in an isogenic RCH-ACV NSD2 p.E1099K mutant (9B) (AID 1645876); note: potency is the fitted concentration of half-maximal effect; nearly all actives have a fitted effect of over 70% in size
# [5] = Primary qHTS for inhibitors of nuclear receptor binding SET domain protein 2 (NSD2) in an RCH-ACV wild type WT cells (2C) (AID 1645877); conditions: activity change, negative = cell killing: at 44.9 µM (top of the series) unless noted; note: nearly all actives have a fitted effect of over 70% in size; note: potency is the fitted concentration of half-maximal effect
# HEK293 = assay: Cytotoxic Profiling of Annotated Libraries Using Quantitative High-Throughput Screening (AID 1296008); conditions: Five cell lines viability, CellTiter-Glo ATP luminescence, 48-72 h; max response: stronger effect = lower value; note: nearly all actives have a fitted effect of over 60% in size; note: potency is the fitted concentration of half-maximal effect; for max response: % is set by controls: 0 for no effect and ±100 for the full control effect
# Outline: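 Cytotoxicity was measured as CellTiter-Glo ATP luminescence, read after 10 min at room temperature. Compound treatment of the cells lasted 48 or 72 hr at 37 degrees Celsius in a qHTS format.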
# [6] = qHTS of pediatric cancer cell lines to identify multiple opportunities for drug repurposing: Primary screen for SK-N-MC cells (AID 1347093); conditions: SK-N-MC viability, CellTiter-Glo luminescence, 48 h; activity change, negative = cytotoxic: at 46 µM (top of the series);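 note: plate controls were DMSO neutral control for no effect and bortezomib for full effect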
# Outline: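 Metabolically active cells were quantified by ATP-dependent luminescence (CellTiter-Glo, 15 min at room temperature) following 48 h treatment. Cells had been plated at 500-1,000 per well and settled for 5 h beforehand.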
# [7] = qHTS of pediatric cancer cell lines to identify multiple opportunities for drug repurposing: Primary screen for U-2 OS cells (AID 1347096);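 note: plate controls were DMSO wells for no effect and bortezomib positive control wells for full effect; nearly all actives have a fitted effect of over 50% in size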
# Outline: (§1)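 Cells (500-1,000/well) rested 5 h, then received compounds for 48 h; metabolically active cells were measured by CellTiter-Glo luminescence. Final concentrations spanned up to 46 µM (MIPE, 11-point) or 0.59 nM-46 µM (NPC, 8-point) in primary screens, 11-point in follow-ups.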
# [8] = qHTS of pediatric cancer cell lines to identify multiple opportunities for drug repurposing: Primary screen for SK-N-SH cells (AID 1347098); note: % is set by controls: 0 for no effect and ±100 for the full control effect; nearly all actives have a fitted effect of over 65% in size
# Outline: as §1
# [9] = qHTS of pediatric cancer cell lines to identify multiple opportunities for drug repurposing: Primary screen for NB1643 cells (AID 1347099);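 note: plate controls were DMSO neutral control for no effect and bortezomib positive control for full effect; nearly all actives have a fitted effect of over 50% in size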
# Outline: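 Readout: CellTiter-Glo luminescence, 48 h treatment. Controls DMSO (neutral) and bortezomib 2.3 µM final (positive). Potency and efficacy taken from primary-screen concentration-response curves.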
# [10] = Primary qHTS for small molecule stabilizers of the endoplasmic reticulum resident proteome: Secreted ER Calcium Modulated Protein (SERCaMP) assay (AID 1508630); conditions: SH-SY5Y GLuc-SERCaMP (Gaussia luciferase released on ER calcium loss) secretion, thapsigargin, luminescence; activity change, negative = inhibition: at 38.4 µM (top of the series) unless noted; note: potency is the fitted concentration of half-maximal effect
# Outline: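 GLuc-SERCaMP-expressing SH-SY5Y cells, pretreated 16 h with compound, are challenged with thapsigargin to empty ER calcium stores; after 4 h, coelenterazine is added directly to the medium and luminescence is imaged.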
# [11] = molecular target: Cytochrome P450 2D6 (Homo sapiens) (UniProt P10635); assay: Cytochrome P450 family 2 subfamily D member 6 (CYP2D6) small molecule antagonists: luciferase biochemical (cell-free) qHTS assay (AID 1645840; active = well fitted curve in the direction sought with a large enough effect in the repeat runs; inconclusive = weak or mixed curves; inactive = no such curve, though single readings can be large; an effect the other way counts as inactive or inconclusive; note: potency is the fitted concentration of half-maximal effect; nearly all actives have a fitted effect of over 55% in size)
# Outline: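 P450-Glo luminescent screen: recombinant CYP2D6 enzyme–proluciferin substrate mix preincubated with compound 10 min at room temperature, then NADPH regeneration added for 1 h at room temperature. Detection reagent added for 20 min; luciferin light read as relative luminescence units.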
# [12] = molecular target: Cytochrome P450 3A4 (Homo sapiens) (UniProt P08684); assay: Cytochrome P450 family 3 subfamily A member 4 (CYP3A4) small molecule antagonists: luciferase qHTS assay (AID 1645841; active = well fitted curve in the direction sought with a large enough effect in the repeat runs; inconclusive = weak or mixed curves; inactive = no such curve, though single readings can be large; an effect the other way counts as inactive or inconclusive; note: potency is the fitted concentration of half-maximal effect; nearly all actives have a fitted effect of over 45% in size)
# Outline: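 Luminescent CYP3A4 activity readout: compounds plus enzyme-substrate mix 10 min at room temperature, reaction started with NADPH regenerating system for 1 h, stopped with detection reagent, read after 20 min. Ketoconazole served as control.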
# [13] = Drug repurposing screens with cells derived from glioblastoma tumor samples (AID 1345199); conditions: GBM patient neurospheres viability, ATP luminescence, 48 h; Potency: tumour line A unless noted; activity, negative = cell killing: at 46 µM (top of the series), tumour line A unless noted; note: nearly all actives have a fitted effect of over 40% in size; note: potency is the fitted concentration of half-maximal effect; for activity, negative = cell killing: % is set by controls: 0 for no effect and ±100 for the full control effect
# Outline: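 Four patient lines of CD133+ GBM neurospheres were screened at several concentrations; hits were retested in those lines plus three slower-growing GBM lines, using 48-hour treatment and ATP-based viability.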
# [14] = Primary fluorescence-based thiol-reactive (MSTI) qHTS assay for identification of artifact compounds. (AID 1845221); note: potency is the fitted concentration of half-maximal effect;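 note: thiol-reactive compounds lower the probe fluorescence signal; nearly all actives have a fitted effect of over 65% in size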
# Outline: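 qHTS titration of compound; 4 uM MSTI, PBS pH 7.4, 2% DMSO; 1 h RT, dark; fluorescence 525/598 nm; normalized to Acetyl-MSTI and MSTI; 4-parameter Hill fit.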
# [15] = Primary redox qHTS assay for identification of artifact compounds. (AID 1845223); conditions: Amplex Red/HRP redox cycling with DTT, fluorescence; redox activity (% of DA3003): at 53.8 µM (top of the series); note: potency is the fitted concentration of half-maximal effect
# Outline: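 Amplex Red (25 uM) and HRP (250 mU/mL) in HBSS, with compounds for 15 min, then 250 uM DTT for 30 min, room temperature, dark. Fluorescence 525/598 nm read; normalized to DMSO and 10 uM DA3003; Hill fit.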
# Tov112D = assay: Primary qHTS to identify gynecologic anti-cancer compounds using libraries of approved drugs and bioactive compounds (AID 1345084); conditions: Gynecologic cancer cell panel viability, ATPlite luminescence, 48 h; series mostly up to 57.5 µM; note: % is set by controls: 0 for no effect and ±100 for the full control effect; nearly all actives have a fitted effect of over 55% in size
# Outline: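 Cells, 1,000 per well, were allowed to settle for 16 h at 37 C before compound addition. Five concentrations were tested for 48 h, and viability was read by ATPlite luminescence after 15 min at room temperature.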
# [16] = molecular target: Ubiquitin carboxyl-terminal hydrolase 1 (Homo sapiens) (UniProt O94782); assay: Inhibitors of USP1/UAF1: Pilot qHTS (AID 504865);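 note: rhodamine fluorescence freed from ubiquitin-rhodamine substrate followed over time; potency is the fitted concentration of half-maximal effect; nearly all actives have a fitted effect of over 35% in size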
# Outline: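 Kinetic fluorescence assay: 1nM USP1/UAF1, 15 min compound preincubation, then 150nM Ub-Rho; 480/540 nm.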
# [17] = molecular target: Rap guanine nucleotide exchange factor 4 (Homo sapiens) (UniProt Q8WZA2); assay: Confirmatory qHTS for antagonist of cAMP-regulated guanine nucleotide exchange factor 4 (EPAC2) (AID 1645885); conditions: EPAC2 Rap1B-BODIPY-GDP exchange fluorescence, biochemical; note: potency is the fitted concentration of half-maximal effect; nearly all actives have a fitted effect of over 25% in size
# CP185 = assay: qHTS profiling for inhibitors of Plasmodium falciparum proliferation (AID 504749); note: nearly all actives have a fitted effect of over 60% in size; note: potency is the fitted concentration of half-maximal effect; conditions: P. falciparum in erythrocytes, SYBR Green DNA, 72 h; series mostly up to 28.7 µM
# Outline: (§2)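 Three-day growth assay of blood-stage parasites in erythrocytes (0.3% parasitemia, 2.5% hematocrit) at 37 C, 5% CO2, quantified by SYBR Green DNA staining after overnight detergent lysis.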
# CP192 = assay: as above; conditions: P. falciparum in erythrocytes, SYBR Green DNA, 72 h; series mostly up to 28.7 µM
# Outline: as §2
# CP250 = assay: as above; conditions: P. falciparum in erythrocytes, SYBR Green DNA, 72 h; series mostly up to 28.7 µM
# Outline: as §2
# CP265 = assay: as above; conditions: P. falciparum in erythrocytes, SYBR Green DNA, 72 h; series mostly up to 28.7 µM
# Outline: as §2
# CP335 = assay: as above; conditions: P. falciparum in erythrocytes, SYBR Green DNA, 72 h; series mostly up to 28.7 µM
# Outline: as §2
# TAB165 = assay: as above; conditions: P. falciparum in erythrocytes, SYBR Green DNA, 72 h; series mostly up to 28.7 µM
# Outline: as §2
# Tags give direction and shape of the fitted curve.
# UniProt P10635, sequence (P10635 whole entry, looked up): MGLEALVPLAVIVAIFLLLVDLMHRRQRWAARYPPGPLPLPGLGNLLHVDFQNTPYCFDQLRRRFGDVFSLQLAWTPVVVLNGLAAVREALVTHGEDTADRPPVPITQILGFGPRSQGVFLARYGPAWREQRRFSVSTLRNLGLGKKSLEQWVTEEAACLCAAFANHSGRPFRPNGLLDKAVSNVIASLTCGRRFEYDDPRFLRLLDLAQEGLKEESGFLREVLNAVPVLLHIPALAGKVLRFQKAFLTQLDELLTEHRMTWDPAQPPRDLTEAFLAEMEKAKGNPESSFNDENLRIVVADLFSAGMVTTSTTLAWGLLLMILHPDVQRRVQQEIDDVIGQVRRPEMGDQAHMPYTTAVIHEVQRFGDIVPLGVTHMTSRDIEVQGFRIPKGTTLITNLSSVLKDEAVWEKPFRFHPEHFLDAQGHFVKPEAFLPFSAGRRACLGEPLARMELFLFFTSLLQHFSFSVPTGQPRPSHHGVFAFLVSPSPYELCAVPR
# UniProt O94782, sequence (O94782 whole entry, looked up): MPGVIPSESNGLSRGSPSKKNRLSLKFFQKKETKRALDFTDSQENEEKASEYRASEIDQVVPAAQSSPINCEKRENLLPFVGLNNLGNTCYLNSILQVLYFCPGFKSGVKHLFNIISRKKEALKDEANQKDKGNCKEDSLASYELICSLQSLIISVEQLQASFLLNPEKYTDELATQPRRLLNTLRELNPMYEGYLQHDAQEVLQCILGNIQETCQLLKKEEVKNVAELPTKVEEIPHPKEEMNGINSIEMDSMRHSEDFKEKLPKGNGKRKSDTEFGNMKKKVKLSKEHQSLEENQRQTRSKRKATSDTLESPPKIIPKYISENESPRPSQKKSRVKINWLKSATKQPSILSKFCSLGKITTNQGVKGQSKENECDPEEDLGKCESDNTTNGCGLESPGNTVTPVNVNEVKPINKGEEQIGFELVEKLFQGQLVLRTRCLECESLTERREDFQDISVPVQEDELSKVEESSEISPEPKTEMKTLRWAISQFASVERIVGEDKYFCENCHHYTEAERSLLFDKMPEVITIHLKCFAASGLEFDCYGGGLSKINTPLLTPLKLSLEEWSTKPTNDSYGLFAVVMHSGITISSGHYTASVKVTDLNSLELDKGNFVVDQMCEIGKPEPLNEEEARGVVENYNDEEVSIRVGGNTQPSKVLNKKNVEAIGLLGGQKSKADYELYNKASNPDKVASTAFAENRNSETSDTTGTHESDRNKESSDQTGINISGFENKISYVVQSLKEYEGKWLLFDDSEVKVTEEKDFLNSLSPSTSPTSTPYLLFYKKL
# UniProt P08684, sequence (P08684 whole entry, looked up): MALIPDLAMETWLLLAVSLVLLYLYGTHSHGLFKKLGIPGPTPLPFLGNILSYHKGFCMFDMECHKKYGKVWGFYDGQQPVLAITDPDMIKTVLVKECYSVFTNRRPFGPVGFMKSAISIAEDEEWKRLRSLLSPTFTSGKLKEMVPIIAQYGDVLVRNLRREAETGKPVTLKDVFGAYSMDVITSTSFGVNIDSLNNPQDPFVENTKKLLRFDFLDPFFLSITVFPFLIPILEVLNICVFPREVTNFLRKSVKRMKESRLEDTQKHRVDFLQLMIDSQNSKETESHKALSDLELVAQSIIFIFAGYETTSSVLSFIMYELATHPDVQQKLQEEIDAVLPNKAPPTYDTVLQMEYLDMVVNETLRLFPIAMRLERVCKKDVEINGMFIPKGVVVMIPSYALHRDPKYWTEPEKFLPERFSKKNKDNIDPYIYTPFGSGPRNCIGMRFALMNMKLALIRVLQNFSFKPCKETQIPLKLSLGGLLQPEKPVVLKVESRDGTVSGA
# UniProt Q8WZA2, sequence (Q8WZA2 whole entry, looked up): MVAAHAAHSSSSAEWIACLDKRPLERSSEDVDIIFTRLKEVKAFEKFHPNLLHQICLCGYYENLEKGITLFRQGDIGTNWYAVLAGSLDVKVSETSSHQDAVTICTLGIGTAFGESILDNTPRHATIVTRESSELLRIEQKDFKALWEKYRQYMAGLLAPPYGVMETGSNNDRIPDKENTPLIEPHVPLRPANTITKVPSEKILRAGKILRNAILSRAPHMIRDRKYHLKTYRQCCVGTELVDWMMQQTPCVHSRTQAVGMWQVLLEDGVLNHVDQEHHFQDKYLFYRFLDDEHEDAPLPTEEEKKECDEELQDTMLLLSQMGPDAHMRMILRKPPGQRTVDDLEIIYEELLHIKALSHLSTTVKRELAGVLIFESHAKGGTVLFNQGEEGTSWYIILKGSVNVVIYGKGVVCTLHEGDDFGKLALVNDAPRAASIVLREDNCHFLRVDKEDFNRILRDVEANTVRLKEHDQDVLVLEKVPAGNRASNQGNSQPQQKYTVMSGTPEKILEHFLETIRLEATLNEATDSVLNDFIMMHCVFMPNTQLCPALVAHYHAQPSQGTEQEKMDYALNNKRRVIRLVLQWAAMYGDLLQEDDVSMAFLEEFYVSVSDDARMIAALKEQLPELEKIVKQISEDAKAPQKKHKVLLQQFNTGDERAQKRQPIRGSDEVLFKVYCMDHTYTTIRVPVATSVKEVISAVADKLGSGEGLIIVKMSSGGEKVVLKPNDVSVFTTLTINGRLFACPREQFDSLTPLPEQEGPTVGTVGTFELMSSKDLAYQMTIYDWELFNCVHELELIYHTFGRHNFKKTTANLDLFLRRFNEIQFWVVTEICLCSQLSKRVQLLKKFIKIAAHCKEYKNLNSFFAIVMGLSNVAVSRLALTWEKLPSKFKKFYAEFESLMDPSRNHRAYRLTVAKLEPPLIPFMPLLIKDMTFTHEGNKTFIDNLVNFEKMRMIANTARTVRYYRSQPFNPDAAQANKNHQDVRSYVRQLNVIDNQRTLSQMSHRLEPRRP
smiles,measurement,setting,value
CC(=O)O[C@@H]1CC2C(/C=C(\C)C(=O)[C@@]3(O)C[C@@H](C)[C@H](OC(=O)c4ccccc4)C3/C=C/1C)C2(C)C (some centres undefined),Potency,[1],"inconclusive: 10 µM [inhibitor, single point]"
same,Potency,[2],"inconclusive: 25.1 µM [inhibitor, partial curve]"
same,Potency,[3],"inconclusive: 12.6 µM [inhibitor, single point]"
same,Potency,[4],"inconclusive: 11.2 µM [inhibitor, single point]"
same,Potency,[5],"inconclusive: 10 µM [inhibitor, single point]"
same,Potency,HEK293,"inconclusive: 14.2 µM [inhibitor, single point]"
COc1cc(C2Oc3c(OC)cc(/C=C/C(=O)OC[C@H]4O[C@@H](OC(C)(C)C(=O)O)[C@H](O)[C@@H](O)[C@@H]4O)cc3C2CO)ccc1O (some centres undefined),Potency,[1],inactive
same,outcome,HEK293,inactive
CO[C@@]1(NC(=O)C(C(=O)O)c2ccc(O)cc2)C(=O)N2C(C(=O)O)=C(CSc3nnnn3C)CO[C@@H]21 (some centres undefined),Potency,[6],inactive
same,Potency,[7],inactive
same,Potency,[8],inactive
same,Potency,[9],inactive
same,Potency,[10],"inconclusive: 7.08 µM [inhibitor, partial curve, poor fit]"
same,Potency,[11],"inconclusive: 15.5 µM [inhibitor, partial curve]"
same,Potency,[12],"inconclusive: 19.5 µM [falling, partial curve]"
same,Potency,[5],inactive
same,max response,HEK293,inactive: 1.05%
same,Potency,[13],inactive
CCC/C=C\C=C/CCc1cc(O)c([C@@H]2O[C@H](CO)[C@@H](O)[C@H](O)[C@H]2O)c(O)c1C(=O)OC,Potency,[14],inactive
same,Potency,[15],"inconclusive: 13 µM [activator, partial curve, poor fit]"
same,Potency,HEK293,"inconclusive: 12.6 µM [inhibitor, single point]"
same,Potency,Tov112D,inactive
CCC(C)CNCC(=O)N1CCC2SC=CC2C1COc1cccc(C)c1 (centres undefined),Potency,[1],"inconclusive: 13 µM [inhibitor, partial curve]"
same,Potency,[11],active: 0.0756 µM
same,Potency,HEK293,"inconclusive: 29.1 µM [inhibitor, single point]"
CC1CC(OC(=O)C(O)c2ccccc2)CC(C)(C)C1 (centres undefined),Potency,[16],"inconclusive: 44.7 µM [inhibitor, partial curve]"
same,Potency,[2],"inconclusive: 39.8 µM [inhibitor, partial curve]"
same,Potency,[4],"inconclusive: 23 µM [inhibitor, partial curve]"
same,Potency,[5],"inconclusive: 25.8 µM [inhibitor, partial curve]"
same,Potency,[17],"inconclusive: 44.1 µM [inhibitor, partial curve]"
same,Potency,[14],"inconclusive: 37.7 µM [inhibitor, single point]"
same,Potency,CP185,inactive
same,Potency,CP192,"inconclusive: 21.3 µM [inhibitor, partial curve, poor fit]"
same,Potency,CP250,inactive
same,Potency,CP265,inactive
same,Potency,CP335,"inconclusive: 4.26 µM [inhibitor, partial curve, poor fit]"
same,Potency,TAB165,inactive
same,Potency,HEK293,"inconclusive: 29.1 µM [inhibitor, single point]"
same,Potency,[13],"inconclusive: 22.4 µM [inhibitor, partial curve, poor fit]"
